# From the supplement of paper PMC3334620
# Whole data set: some 33,000 sequences, median “E-score (-0.5 to 0.5)” near -0.011, cut for the highest 2% near 0.28. This is one part of the list.
# Target: T1, Gcr1 (UniProt P07261)
# T1 sequence: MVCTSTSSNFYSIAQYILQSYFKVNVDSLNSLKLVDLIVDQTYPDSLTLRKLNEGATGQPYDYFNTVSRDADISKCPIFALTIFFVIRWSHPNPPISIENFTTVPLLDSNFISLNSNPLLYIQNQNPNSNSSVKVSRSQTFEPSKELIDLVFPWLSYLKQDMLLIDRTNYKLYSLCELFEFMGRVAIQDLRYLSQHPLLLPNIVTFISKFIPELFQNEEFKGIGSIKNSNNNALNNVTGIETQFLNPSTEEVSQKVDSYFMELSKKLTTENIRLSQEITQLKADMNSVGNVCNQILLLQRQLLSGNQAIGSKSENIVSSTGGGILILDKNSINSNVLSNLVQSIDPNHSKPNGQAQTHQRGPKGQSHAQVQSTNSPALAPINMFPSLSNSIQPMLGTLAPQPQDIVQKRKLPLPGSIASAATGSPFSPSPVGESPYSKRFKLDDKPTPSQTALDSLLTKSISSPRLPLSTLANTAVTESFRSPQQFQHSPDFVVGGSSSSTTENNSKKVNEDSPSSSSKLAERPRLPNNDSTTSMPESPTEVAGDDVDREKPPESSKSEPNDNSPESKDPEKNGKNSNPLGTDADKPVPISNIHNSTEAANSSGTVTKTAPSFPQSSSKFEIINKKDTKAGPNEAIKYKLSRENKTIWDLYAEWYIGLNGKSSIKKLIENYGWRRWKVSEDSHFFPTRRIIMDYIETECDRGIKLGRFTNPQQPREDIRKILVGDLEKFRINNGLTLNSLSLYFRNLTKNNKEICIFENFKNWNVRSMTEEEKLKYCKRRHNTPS
# Assay: PBM E-score (8-mer binding enrichment) (E-score (-0.5 to 0.5)); higher = stronger / more preferred TF binding; most listed sequences are background and not binding sites
# Conditions: protein concentration: 100 nM; construct: GST-full length
# Procedure, shortened: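 GST-tagged yeast TFs (full-length or DNA-binding domain) were made by PURExpress in vitro transcription/translation and applied at about 100-200 nM to universal all-10-mer Agilent arrays. The arrays were made double-stranded by primer extension, on fresh or once-stripped slides. Bound protein was detected with fluorescent anti-GST, and scans were normalised with masliner. Each ungapped eight-base word, pooled with its reverse complement, received an E-score (modified Wilcoxon-Mann-Whitney statistic) from the Universal PBM Analysis Suite.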
row,Sequence,PBM E-score
1,ATTCAAGA,0.12
2,AGTTGGGG,-0.0265
3,AGAGAGCT,-0.208
4,CCAGGCCG,-0.117
5,CGCACATA,-0.264
6,CAAAAGGA,0.156
7,GGTCCTTA,0.0824
8,AGATTCCG,0.284
9,ACTGCTCA,-0.0624
10,CCCTCTTC,-0.0518
11,ATTCCCAA,0.162
12,GCGGGCCC,0.187
13,ATCCAAAT,0.224
14,TGACTCAA,-0.115
15,ATCGCATA,0.0722
16,GAAAACCA,0.084
17,ATGGGATA,0.166
18,GTTTTTCA,0.171
19,CTCCTTAC,-0.0603
20,AGCGTCCT,0.426
21,AGTTCCGC,-0.0461
22,ACGAGGAT,-0.0152
23,ACATTAAC,0.018
24,CCCCCGGG,-0.05
25,TCGTGACA,0.0544

row,Sequence,PBM E-score
1,AGAAGTAT,-0.0844
2,CGCGTAGA,0.0326
3,ACCGAAGG,-0.119
4,GAGGTGGA,-0.221
5,GCCGAGGA,-0.132
6,AGAAGGTC,-0.261
7,GGAGCAGA,-0.0656
8,ACGTGCCG,-0.0089
9,CAATAGAG,0.0491
10,CATACCTA,0.0799
11,AGCACGGG,-0.0631
12,AGATAGGC,-0.0803
13,TGGAGCCA,0.205
14,CCTCGTCG,-0.104
15,CAGGGGTC,0.0737
16,CGAGTCCG,-0.154
17,AAGACTGG,0.0254
18,CGACAGAG,-0.235
19,TACTAAGA,0.216
20,CTGGAAAA,-0.00671
21,ACCACAGC,-0.17
22,GGGTCCAC,-0.00435
23,AACTCGGC,0.0457
24,ACTGCAGA,-0.219
25,CTGCGGAC,0.00885

row,Sequence,PBM E-score
1,CTAGTTAA,0.119
2,AGAGCTCG,-0.195
3,GTCTCGGA,-0.0785
4,AGGCTTGC,-0.246
5,ATCGGTCC,-0.119
6,CCTGATAG,-0.233
7,ACACTTCA,-0.17
8,CCAGCATA,-0.0136
9,AGTCAAAA,-0.0258
10,CTTCAGGA,0.268
11,ATGATTCC,0.103
12,GAGTCGAA,-0.107
13,TCCTAGGA,0.228
14,ACTTTACC,-0.127
15,TGGGATAA,-0.0747
16,TATGCACA,-0.0979
17,GGCGCGTA,0.279
18,GATATTCC,0.0186
19,CGCATATA,-0.00312
20,CCCCCCTA,-0.13
21,CATTGAAC,0.0331
22,ACCTCAAG,-0.121
23,TAAAGTAA,-0.0967
24,AATGACAT,-0.0777
25,AGCGTCAC,-0.078

row,Sequence,PBM E-score
1,CTTCATGC,-0.211
2,GTTCTATA,0.0625
3,AGATCAGG,-0.0936
4,CTTGACCC,-0.141
5,AAGTGACG,-0.0426
6,GAAAGTAA,-0.0143
7,ACCGCCAG,-0.0205
8,CGCTAAAA,0.186
9,GTGCGCAC,0.0714
10,CCCATAGA,0.0813
11,AAGAGCAA,-0.112
12,ACATCGGT,-0.0758
13,GTAAATTA,0.0604
14,CAGGCCGC,0.139
15,ACCTTCAG,-0.0589
16,ACAGACTA,-0.106
17,ACCAGAAG,0.262
18,TGGTTACA,0.0493
19,ATACCTTC,0.00478
20,CACACGAA,0.0208
21,CTTCTTTA,0.108
22,AAACCCGC,-0.114
23,ATGGACTA,-0.178
24,CGTATGAA,0.196
25,ATGCAATC,-0.0826

row,Sequence,PBM E-score
1,ATTCCAAT,0.299
2,AAGGCGCG,0.094
3,ATGCCGAG,-0.0514
4,CCGGCTCA,0.0479
5,CTCGATTC,-0.0227
6,GCAAGTAA,0.0429
7,ATCTGTCA,-0.0824
8,AACCGAAT,0.0679
9,CGGGTGGA,-0.0523
10,TCGGTTAA,0.01
11,AAATATCC,-0.0141
12,ACGCCGAC,0.0534
13,CTGCGAGC,-0.0142
14,ATGGCTTC,0.3
15,ACTGAGAC,-0.074
16,ATTACGCC,0.0413
17,ACGTGGGC,-0.121
18,GCAGGCTA,-0.321
19,CTGCCGGA,0.0835
20,CACCTTGG,-0.138
21,AAATTGGT,0.226
22,ATCTTCAG,0.133
23,GTGTGGCA,-0.134
24,ATTTCCGG,0.158
25,CACAGGTA,0.0365

row,Sequence,PBM E-score
1,CTACCTAC,0.0735
2,GTGGAACA,0.0401
3,CTGCCGGC,0.0388
4,AGAGGAGA,0.0687
5,CAACGAAC,-0.0633
6,AGAAATTA,0.0854
7,CAAGCGGG,-0.0978
8,AACTACTT,0.0473
9,GGGGTCAC,-0.0641
10,CAATAACC,-0.016
11,ATGCCGGA,0.215
12,TAAGGGTA,-0.223
13,GGCCGGTA,-0.0895
14,TCTCCCCA,0.111
15,TACCCACA,0.00706
16,GAAACAGA,0.157
17,CCATATCG,0.05
18,ACTAAGCC,-0.0696
19,TAGATTGA,-0.00461
20,ACCCTTCA,-0.0713
21,CCTTATAG,0.152
22,ACTAATAG,0.24
23,GTACTGTA,-0.125
24,ATGGCGAC,-0.135
25,TCGGTCCA,-0.191

row,Sequence,PBM E-score
1,AAACTGAC,-0.0167
2,GATTTTCC,-0.0907
3,CTCTTCAA,0.00436
4,ACGAACTA,-0.0557
5,CTACGGTA,-0.0495
6,CCCGTTAC,-0.0381
7,TCGTCAAA,0.234
8,AAACACAG,-0.0882
9,AGCGAAGA,-0.188
10,AAGCTCCG,0.00534
11,AAACTGCT,-0.128
12,GAAGAAGA,0.183
13,CTGCTGTA,-0.0386
14,GAGATGTA,-0.064
15,CCTGCTTA,0.00991
16,CGGGGTGC,0.226
17,AAACTGTC,-0.167
18,CTTGTTAA,0.114
19,AACTGCCT,-0.0496
20,CGTACGAA,-0.119
21,ATCCCCTC,0.156
22,ATACAGAT,0.106
